# Assay results: PubChem BioAssay AID624255 (Broad Institute, 2012)
# The whole screen tested about 77,000 compounds, of which about 4,600 (6%) were called active. Inconclusive results, whose numbers are uncertain, are shown with a selection of clear calls.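 Rule for the calls: active = mean inhibition above about 93%, with at least 55% of replicates each passing it (limit read from the data, passing the limit was not always enough); inconclusive = only one of those two conditions holds; inactive = neither condition holds.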
# Assay: T. cruzi intracellular proliferation inhibitors, primary screen, cell-based, beta-gal Tulahuen parasites, NIH3T3 host, luminescence (AID 624255)
# Details: T. cruzi beta-gal in NIH3T3, GalScreen luminescence, 90 h; at 8.34 µM; hits give high values
row,SMILES,inhibition
1,N#C[C@H]1[C@H](c2ccc(-c3ccc(F)cc3)cc2)[C@@H](CO)N1C(=O)Cc1ccccc1,inconclusive: 97.1%
2,C[C@@H]1CCCCO[C@H](CN(C)C(=O)Nc2ccc(C(F)(F)F)cc2)[C@H](C)CN([C@H](C)CO)C(=O)c2cc(NC(=O)Nc3cccc4ccccc34)ccc2O1,inactive: 77.8%
3,COc1ccc(-c2ccc3n(c2=O)C[C@@H]2[C@@H](CO)[C@H](C(=O)N(C)C)N(CC4CC4)[C@H]32)cc1,active: 103%
4,C[C@H](CO)N1C[C@H](C)[C@@H](CN(C)C)Oc2cc(C#CCC3CCCC3)ccc2S1(=O)=O,inconclusive: 99.2%
5,Cc1ccc(S(=O)(=O)Nc2ccc3c(c2)C(=O)N([C@@H](C)CO)C[C@@H](C)[C@@H](CN(C)CC2CC2)OCCCC[C@@H](C)O3)cc1,inconclusive: 98.3%
6,CC(C)CC#Cc1ccc2c(c1)O[C@H](CN(C)Cc1cncnc1)[C@@H](C)CN([C@H](C)CO)S2(=O)=O,active: 103%
7,C[C@H](CO)N1C[C@H](C)[C@H](CN(C)Cc2ccncc2)Oc2ccc(NS(C)(=O)=O)cc2CC1=O,inactive: 15.9%
8,C[C@@H]1CN([C@H](C)CO)C(=O)c2cc(NC(=O)Nc3cccc4ccccc34)ccc2O[C@@H](C)CCCCO[C@H]1CN(C)C(=O)C1CCCCC1,inconclusive: 119%
9,COc1ccc(-c2ccc3c(c2)O[C@@H](CN(C)CC2CCOCC2)[C@H](C)CN([C@@H](C)CO)S3(=O)=O)cc1,active: 93.2%
10,C[C@H]1CN([C@@H](C)CO)C(=O)c2cc(NC(=O)NC3CCCCC3)ccc2O[C@H]1CN(C)Cc1ccc2c(c1)OCO2,inconclusive: 95.3%
11,C[C@@H]1CCCCO[C@@H](CN(C)Cc2ccc(C(F)(F)F)cc2)[C@H](C)CN([C@@H](C)CO)C(=O)c2cc(NC(=O)NC3CCCCC3)ccc2O1,inconclusive: 107%
12,COCC#Cc1ccc2c(c1)O[C@@H](CN(C)Cc1ccncc1)[C@@H](C)CN([C@@H](C)CO)S2(=O)=O,inconclusive: 95.8%
13,C[C@H](CO)N1C[C@H](C)[C@@H](CN(C)C(=O)Nc2ccc(F)cc2)Oc2cc(/C=C/c3ccccc3)ccc2S1(=O)=O,active: 124%
14,CO[C@@H]1CN(C)C(=O)c2cc(NC(=O)c3cc(C)on3)ccc2OC[C@@H](C)N(CC2CC2)C[C@H]1C,inactive: -7.47%
15,O=C(Nc1cccc(F)c1)N1C[C@H]2[C@@H](c3ccccc31)[C@H](CO)N2C(=O)c1ccccn1,inactive: 49.1%
16,Cc1ccc(S(=O)(=O)Nc2ccc3c(c2)C(=O)N([C@H](C)CO)C[C@H](C)[C@H](CN(C)Cc2ccc(Cl)c(Cl)c2)O3)cc1,inconclusive: 113%
17,O=C(C[C@@H]1CC[C@H]2[C@@H](COC[C@@H](O)CN2CC2CCCCC2)O1)NCc1ccc(F)cc1,inactive: 81.1%
18,C[C@@H]1CCCCO[C@@H](CN(C)Cc2ccc(Cl)c(Cl)c2)[C@@H](C)CN([C@H](C)CO)C(=O)c2cc(NC(=O)CCC(F)(F)F)ccc2O1,inconclusive: 91.6%
19,C[C@@H]1CN([C@H](C)CO)C(=O)c2cccc(NC(=O)NC3CCCCC3)c2O[C@H]1CN(C)Cc1ccc(C(F)(F)F)cc1,inconclusive: 75.9%

row,SMILES,inhibition
1,C[C@H]1CCCCO[C@@H](CN(C)C(=O)c2ccccc2)[C@@H](C)CN([C@@H](C)CO)C(=O)c2cc(NC(=O)Nc3ccc(F)cc3)ccc2O1,inconclusive: 97%
2,C[C@@H]1CCCCO[C@@H](CN(C)S(=O)(=O)c2ccccc2)[C@@H](C)CN([C@H](C)CO)C(=O)c2cc(N(C)C)ccc2O1,inactive: 47.6%
3,COc1ccccc1-c1ccc([C@H]2[C@@H](CO)N3CCCCN(C(=O)CN4CCOCC4)C[C@@H]23)cc1,inconclusive: 95.7%
4,Cn1cnc(S(=O)(=O)N2CCCCN3[C@H](CO)[C@H](c4ccc(-c5ccc(F)cc5)cc4)[C@H]3C2)c1,inconclusive: 95.9%
5,Cc1noc(C)c1NC(=O)Nc1ccc2c(c1)C(=O)N([C@@H](C)CO)C[C@H](C)[C@H](CN(C)Cc1ccccc1)O2,inactive: 4.26%
6,C[C@@H]1CN([C@@H](C)CO)C(=O)c2cccc(NC(=O)NC3CCCCC3)c2O[C@H]1CN(C)Cc1ccc(Cl)c(Cl)c1,inconclusive: 78.3%
7,Cc1ccc(S(=O)(=O)N[C@@H]2CC[C@H](CC(=O)N3CCc4ccccc4C3)O[C@H]2CO)cc1,inactive: -175%
8,C[C@@H]1CN([C@@H](C)CO)C(=O)c2cc(NS(=O)(=O)c3cn(C)cn3)ccc2O[C@H]1CN(C)C(=O)Nc1ccc(C(F)(F)F)cc1,inactive: -24.9%
9,COc1ccccc1-c1cnc2c(c1)C(=O)N([C@H](C)CO)C[C@H](C)[C@@H](CN(C)Cc1cccc(F)c1)O2,inconclusive: 81.2%
10,COc1ccc(CN(C)C[C@@H]2OCCCC[C@@H](C)Oc3ccc(NC(=O)c4ccccc4)cc3C(=O)N([C@H](C)CO)C[C@H]2C)cc1,active: 107%
11,C[C@@H](O)C#Cc1ccc([C@H]2[C@H]3CN(C(=O)c4ccncc4)CCCCN3[C@H]2CO)cc1,inconclusive: 95.5%
12,CN(C)CC#Cc1ccc([C@@H]2[C@@H](CO)N3CCCCN(C(=O)Nc4ccc(F)cc4)C[C@@H]23)cc1,inconclusive: 98.6%
13,COc1cccc(-c2ccc([C@H]3[C@H](C#N)N(C(=O)Cc4ccncc4)[C@H]3CO)cc2)c1,inconclusive: 95.9%
14,CCc1cnc(N2[C@H](C#N)[C@@H](c3ccc(C#CCC4CCCC4)cc3)[C@@H]2CO)s1,inconclusive: 97.3%
15,COc1ccc(S(=O)(=O)Nc2ccc3c(c2)CC(=O)N([C@H](C)CO)C[C@H](C)[C@@H](CN(C)Cc2ccc4c(c2)OCO4)O3)cc1,inconclusive: 104%
16,C[C@@H]1CN([C@H](C)CO)C(=O)c2cc(C3=CCCC3)cnc2O[C@@H]1CN(C)C(=O)c1ccncc1,inactive: -45.2%
17,C[C@H]1CCCCO[C@@H](CN(C)C(=O)Nc2ccc(F)cc2)[C@@H](C)CN([C@@H](C)CO)C(=O)c2cc(NC(=O)c3ccccc3)ccc2O1,inconclusive: 98.9%
18,COc1ccc(CN(C)C[C@@H]2OCCCC[C@H](C)Oc3ccc(NS(=O)(=O)c4ccc(Cl)cc4)cc3C(=O)N([C@@H](C)CO)C[C@H]2C)cc1,inconclusive: 102%
19,COCC#Cc1ccc([C@@H]2[C@H](CO)N3CCCCN(Cc4cncnc4)C[C@@H]23)cc1,inconclusive: 95.2%

row,SMILES,inhibition
1,C[C@H](CO)N1C[C@H](C)[C@@H](CN(C)Cc2ccc(C(F)(F)F)cc2)OCCCC[C@H](C)Oc2ccc(NC(=O)C3CCCCC3)cc2C1=O,inconclusive: 123%
2,CCCC#Cc1ccc([C@@H]2[C@H](CO)N3CCCCN(C(=O)c4ccc5c(c4)OCO5)C[C@@H]23)cc1,inconclusive: 95.3%
3,CCc1cnc(N2[C@@H](C#N)[C@H](c3ccc(C#CC(C)C)cc3)[C@@H]2CO)s1,active: 107%
4,C[C@H]1CCCCO[C@@H](CN(C)C(=O)Nc2ccc(C(F)(F)F)cc2)[C@@H](C)CN([C@@H](C)CO)C(=O)c2cc(NS(=O)(=O)c3ccccc3)ccc2O1,inconclusive: 101%
5,C[C@@H]1CN([C@H](C)CO)C(=O)c2cc(C#CC3CCCCC3)cnc2O[C@@H]1CN(C)S(=O)(=O)c1ccc(F)cc1,inconclusive: 82.2%
6,Cc1ccccc1S(=O)(=O)N1CC[C@@H]2[C@@H](CO)Nc3ccc(-c4ccc(C#N)cc4)cc3[C@@H]21,inconclusive: 98.2%
7,CCS(=O)(=O)N1CCCCN2[C@H](CO)[C@@H](c3ccc(C#Cc4ccccc4OC)cc3)[C@H]2C1,active: 122%
8,Cc1ccc(-c2ccc3c(c2)O[C@H](CN(C)C)[C@@H](C)CN([C@H](C)CO)S3(=O)=O)cc1,active: 107%
9,COc1ccc(NC(=O)N2CC[C@@H]3[C@@H](CO)N(C)c4ccc(-c5cccc(F)c5)cc4[C@@H]32)cc1,inconclusive: 97.3%
10,Cc1noc(C)c1NC(=O)Nc1ccc2c(c1)C(=O)N([C@H](C)CO)C[C@H](C)[C@H](CN(C)Cc1ccc(C(=O)O)cc1)OCCCC[C@@H](C)O2,inactive: 19.9%
11,COc1ccc(NC(=O)Nc2ccc3c(c2)C(=O)N([C@H](C)CO)C[C@H](C)[C@H](CN(C)C(=O)Nc2ccc(C(F)(F)F)cc2)OCCCC[C@H](C)O3)cc1,inconclusive: 121%
12,C[C@H]1CN([C@@H](C)CO)C(=O)c2cc(C#Cc3ccccn3)cnc2O[C@@H]1CN(C)Cc1cccnc1,inactive: 71.3%
13,C[C@@H]1CCCCO[C@H](CN(C)C(=O)c2ccccc2)[C@@H](C)CN([C@@H](C)CO)C(=O)c2cc(NC(=O)Nc3ccc(C(F)(F)F)cc3)ccc2O1,inconclusive: 112%
14,N#C[C@@H]1[C@@H](c2ccc(C#CC3CC3)cc2)[C@H](CO)N1C(=O)Cc1ccccn1,active: 98.9%
15,N#Cc1cccc(-c2ccc3c(c2)[C@H]2[C@H](CCN2C(=O)c2ccc4c(c2)OCO4)[C@@H](CO)N3)c1,active: 97.5%
16,CC(C)NC(=O)Nc1ccc2c(c1)CC(=O)N([C@H](C)CO)C[C@H](C)[C@@H](CN(C)Cc1ccc(Oc3ccccc3)cc1)O2,inactive: 37.6%
17,C[C@H](CO)N1C[C@H](C)[C@H](CN(C)C(=O)C2CCCCC2)Oc2cc(C#CC3CC3)ccc2S1(=O)=O,inconclusive: 116%
18,C[C@@H]1CCCCO[C@H](CN(C)S(=O)(=O)c2ccc(Cl)cc2)[C@H](C)CN([C@H](C)CO)C(=O)c2cc(NS(C)(=O)=O)ccc2O1,inactive: 19%
19,C/C=C/c1cnc2c(c1)C(=O)N([C@H](C)CO)C[C@H](C)[C@H](CN(C)C(=O)Nc1ccccc1F)O2,inactive: 19.3%
